Some of the results follow.

First the molecules themselves.
B1: PhoQ; a variant is named by its letters at X, in order, P23837 (parent)
chain: MKKLLRLFFPLSLRVRFLLATAAVVLVLSLAYGMVALIGYSVSFDKTTFRLLRGESNLFYTLAKWENNKLHVELPENIDKQSPTMTLIYDENGQLLWAQRDVPWLMKMIQPDWLKSNGFHEIEADVNDTSLLLSGDHSIQQQLQEVREDDDDAEMTHSVAVNVYPATSRMPKLTIVVVDTIPVELKSSYMVWSWFIYVLSANLLLVIPLLWVAAWWSLRPIEALAKEVRELEEHNRELLNPATTRELTSLVRNLNRLLKSERERYDKYRTTLTDLTHSLKTPLXXLQXXLRSLRSEKMSVSDAEPVMLEQISRISQQIGYYLHRASMRGGTLLSRELHPVAPLLDNLTSALNKVYQRKGVNISLDISPEISFVGEQNDFVEVMGNVLDNACKYCLEFVEISARQTDEHLYIVVEDDGPGIPLSKREVIFDRGQRVDTLRPGQGVGLAVAREITEQYEGKIVAGESMLGGARMEVIFGRQHSAPKDE

Variants of B1 are the subject of the assay. In words: enrichment ratio after two sorts for PhoP signalling (ratio (wild type AVST 3.29)); higher = more functional. Conditions: with PhoP (E. coli).
In the case of MNVF, the enrichment ratio is not above 0.25.
Regarding EDQV, the enrichment ratio was not above 0.25.
As for VPPS, the enrichment ratio was not above 0.25.
In the case of HTDW it was not above 0.25; in that of ETEL, not above 0.25.
The figure for RALK is not above 0.25; for QQVR it is not above 0.25; for DDCL it is not above 0.25.
On to GMVW, for which the enrichment ratio was not above 0.25.
The figure for MKMY is not above 0.25; for ETTL it is not above 0.25; for KCFY it is not above 0.25.
The figure for RTLT is not above 0.25; for WEMC it is not above 0.25.
Consider PTMY, for which the enrichment ratio is not above 0.25.
Take WKHG: the enrichment ratio was not above 0.25.
For the variant DPEL, the enrichment ratio is not above 0.25.
In the case of WSTE it was not above 0.25; in that of FHEN, not above 0.25; in that of YQMN, not above 0.25.
The figure for VWHQ is not above 0.25.
As for MIGV, the enrichment ratio is 1.71.
In the case of PNIK it was not above 0.25; in that of HRWP, not above 0.25; in that of STNV, 0.624.
As for EMSN, the enrichment ratio was not above 0.25.
The figure for IRTQ is not above 0.25; for MKYF it is not above 0.25.
In the case of TELK it was 8.68.
In the case of QVVY it was not above 0.25; in that of PVIA, not above 0.25; in that of TLER, not above 0.25.
For the variant AWTH, the enrichment ratio is not above 0.25.
In the case of TKMI, the enrichment ratio was determined as 38.2.
In the case of MGNG it was not above 0.25; in that of TFFY, not above 0.25.
In the case of LGAT it was not above 0.25.
The figure for MSLM is 15.9; for NEIS it is not above 0.25; for EVLI it is not above 0.25.
With NRRD, the enrichment ratio was not above 0.25.
In the case of HHYH it was not above 0.25; in that of KTNS, not above 0.25.
The figure for RRPR is not above 0.25; for ICSS it is not above 0.25; for VLMD it is not above 0.25.
For GSIW, the enrichment ratio is not above 0.25.
Regarding YQYV, the enrichment ratio is not above 0.25.
In the case of WYKH it was not above 0.25.
On to CYHS, for which the enrichment ratio was not above 0.25.
As to NGFG, the enrichment ratio was not above 0.25.
As to SCWY, the enrichment ratio is not above 0.25.
The figure for PIPE is not above 0.25; for PPQV it is not above 0.25.
KFGE: the enrichment ratio is not above 0.25.
For the variant MTSV, the enrichment ratio was found to be 0.634.
In the case of TEVG it was 10.9.
The figure for RNEP is not above 0.25; for RASY it is not above 0.25; for QFDI it is not above 0.25.
The figure for FFIE is not above 0.25.
For TRMR, the enrichment ratio was not above 0.25.
In the case of DDLF it was not above 0.25; in that of VNFM, not above 0.25.
In the case of HCSV it was not above 0.25; in that of LMWD, not above 0.25; in that of RMIA, not above 0.25.
The figure for VIFA is not above 0.25; for GQRR it is not above 0.25; for WVVF it is not above 0.25.
Turning to RDIW, the enrichment ratio is not above 0.25.
The figure for NTYS is not above 0.25.
On to ICQC, for which the enrichment ratio is not above 0.25.
The figure for AQGA is not above 0.25; for IMSC it is not above 0.25.
The figure for GYKN is not above 0.25.
MRRV: the enrichment ratio is not above 0.25.
The figure for TMMW is not above 0.25; for IYAM it is not above 0.25.
In the case of HAKH it was not above 0.25; in that of YWWY, not above 0.25.
Regarding MFGN, the enrichment ratio was not above 0.25.
DDQI: the enrichment ratio was not above 0.25.
In the case of PNYK it was not above 0.25; in that of RVPY, not above 0.25.
The figure for SVMI is 4.6.
The figure for TCRS is not above 0.25; for RYGW it is not above 0.25; for TEPE it is not above 0.25.
As to KKLS, the enrichment ratio was not above 0.25.
In the case of NRRI it was not above 0.25; in that of QRDA, not above 0.25; in that of NYYY, not above 0.25.
In the case of NLST it was not above 0.25; in that of NMYD, not above 0.25.
In the case of SWCK it was not above 0.25.
With NKGY, the enrichment ratio is 3.33.
For the variant FTCF, the enrichment ratio is 3.06.
The figure for KFPG is not above 0.25; for GQSQ it is not above 0.25.
In the case of YFPL it was not above 0.25; in that of TRCS, 5.35; in that of APQW, not above 0.25.
For NCNK, the enrichment ratio is not above 0.25.
In the case of VSCA it was not above 0.25; in that of WISH, not above 0.25.
In the case of EREP it was not above 0.25; in that of LPWP, not above 0.25.
The figure for ETQH is not above 0.25.
KMCL: the enrichment ratio is not above 0.25.
The figure for PESF is not above 0.25; for TLCV it is 1.7; for HQLA it is not above 0.25.
The figure for KGII is not above 0.25; for TIAD it is not above 0.25; for GMHV it is not above 0.25.
The figure for KTTY is not above 0.25; for GFLA it is not above 0.25.
Take WNFY: the enrichment ratio is not above 0.25.
In the case of TAWM, the enrichment ratio is 9.41.
The figure for PKWA is not above 0.25; for VWRI it is not above 0.25.
In the case of IEVK it was not above 0.25; in that of EGRS, not above 0.25; in that of QGLK, 1.02.
For EKSI, the enrichment ratio is not above 0.25.
With YAMC, the enrichment ratio was not above 0.25.
For the variant YDLW, the enrichment ratio was not above 0.25.
Turning to EPPV, the enrichment ratio was not above 0.25.
In the case of REDK it was not above 0.25; in that of NSLT, not above 0.25; in that of QECC, not above 0.25.
In the case of FKAL it was not above 0.25.
Regarding KVFK, the enrichment ratio was not above 0.25.
With RSVW, the enrichment ratio is not above 0.25.
Take GDTN: the enrichment ratio is not above 0.25.
As for TGFV, the enrichment ratio worked out at 2.07.
The figure for KNNT is not above 0.25.
As to NEKM, the enrichment ratio was not above 0.25.
In the case of VQVA it was not above 0.25; in that of YSFM, not above 0.25.
In the case of YPGP it was not above 0.25; in that of SITF, 11.8.
The figure for VCSE is not above 0.25; for PVWI it is not above 0.25.
With MELN, the enrichment ratio was not above 0.25.
In the case of GNSW, the enrichment ratio was not above 0.25.
Consider WVFS, for which the enrichment ratio is not above 0.25.
The figure for NEQN is not above 0.25; for WFPG it is not above 0.25; for IWGI it is not above 0.25.
The figure for DDYH is not above 0.25; for IQYK it is not above 0.25.

For the origin of these results see a collection of fitness landscapes (doi:10.1126/science.1257360).
